# Results: the antibiotic and cytotoxicity screens of Wong et al. (2023)
# Some of the results follow.
# How the values were obtained:
# HSkMC = human skeletal muscle cells; assay: cytotoxicity call (relative viability < 0.9); details: 10 µM
# HepG2 = assay: cytotoxicity call (relative viability < 0.9); details: 10 µM
# S. aureus RN4220 = assay: growth inhibition call (relative growth <= 0.2); details: 50 µM
SMILES,cytotoxicity call (HSkMC),cytotoxicity call (HepG2),growth inhibition call (S. aureus RN4220)
C[C@@H]1CN([C@@H](C)CO)C(=O)c2cccc(NC(=O)Nc3ccc(C(F)(F)F)cc3)c2O[C@@H]1CN(C)C(=O)Nc1ccc(F)cc1,inactive,inactive,inactive
COCC(=O)N(C)C[C@H]1Oc2cc(-c3ccc(C#N)cc3)ccc2S(=O)(=O)N([C@@H](C)CO)C[C@@H]1C,inactive,inactive,inactive
CN(C)C(=O)N1CCOC[C@@]2(C1)CN(c1cnn(C)c1)C(=O)CO2,inactive,inactive,inactive
COc1ccc(CN(C)C[C@H]2OCCCC[C@@H](C)Oc3ccc(NS(=O)(=O)c4ccc(Cl)cc4)cc3C(=O)N([C@@H](C)CO)C[C@H]2C)cc1,inactive,active,inactive
CO/N=C(\C(=O)N[C@@H]1C(=O)N2C(C(=O)O)=C(C)CS[C@H]12)c1csc(N)n1,inactive,inactive,active
Cc1ccc(S(=O)(=O)N(C)C[C@H]2Oc3c(NS(=O)(=O)c4ccccc4)cccc3C(=O)N([C@@H](C)CO)C[C@H]2C)cc1,inactive,inactive,inactive
COC1C(O)CC(=O)OC(C)CC=CC=CC(OC2CCC(N(C)C)C(C)O2)C(C)CC(CC=O)C1OC1OC(C)C(OC2CC(C)(O)C(O)C(C)O2)C(N(C)C)C1O (stereo unspecified),inactive,active,active
Cc1noc(C)c1NC(=O)N(C)C[C@H]1Oc2c(NC(=O)c3ccc(-c4nccs4)cc3)cccc2C(=O)N([C@H](C)CO)C[C@H]1C,inactive,inactive,inactive
COC[C@H]1CN(C(=O)CS(C)(=O)=O)Cc2nnn(CC3CC3)c21,inactive,inactive,inactive
CC(C)NC(=O)Nc1cccc2c1O[C@@H](CN(C)S(=O)(=O)c1ccc(F)cc1)[C@H](C)CN([C@@H](C)CO)C2=O,inactive,inactive,inactive
C[C@H](CO)N1C[C@H](C)[C@H](CN(C)C(=O)c2ccccn2)Oc2cc(C#Cc3ccc(F)cc3)ccc2S1(=O)=O,inactive,inactive,inactive
CO[C@@H]1CN(C)C(=O)c2ccc(NC(=O)C3CCCCC3)cc2OC[C@@H](C)N(C(=O)Nc2ccc(C(F)(F)F)cc2)C[C@H]1C,inactive,inactive,inactive
C[C@@H]1CN([C@H](C)CO)C(=O)c2cc(C#Cc3ccccn3)cnc2O[C@H]1CN(C)C(=O)CCN1CCCCC1,inactive,inactive,inactive
Cc1ccc(S(=O)(=O)N(C)C[C@@H]2Oc3ncc(-c4ccncc4)cc3C(=O)N([C@H](C)CO)C[C@@H]2C)cc1,inactive,inactive,inactive
C[C@H]1CN([C@@H](C)CO)C(=O)c2cccc(NS(=O)(=O)c3cn(C)cn3)c2O[C@@H]1CN(C)Cc1ccncc1,inactive,inactive,inactive
Cc1noc(C)c1NC(=O)N(C)C[C@@H]1Oc2cc(C#CCN(C)C)ccc2S(=O)(=O)N([C@H](C)CO)C[C@H]1C,inactive,inactive,inactive
CN1CCC(OC(c2ccccc2)c2ccccc2)CC1.Cl,inactive,inactive,inactive
CN1CCN(C(=O)C[C@H]2CC[C@H]3[C@@H](COC[C@@H](O)CN3Cc3ccc4c(c3)OCO4)O2)CC1,inactive,inactive,inactive
O=C(C[C@@H]1CC=CCC[C@@H](Cc2ccc(F)cc2)C(=O)OC[C@H](Cc2c[nH]c3ccccc23)NC1=O)N[C@H](CO)Cc1ccccc1,inactive,active,inactive
C[C@@H]1CN([C@H](C)CO)C(=O)c2cc(NC(=O)C3CCCCC3)ccc2O[C@@H](C)CCCCO[C@H]1CN(C)S(=O)(=O)c1cccs1,inactive,inactive,inactive
C[C@H](CO)N1C[C@H](C)[C@@H](CN(C)Cc2ccc(-c3ccccc3)cc2)Oc2c(NS(=O)(=O)c3cccs3)cccc2C1=O,inactive,inactive,inactive
C[C@@H]1CCCCO[C@H](CN(C)S(=O)(=O)c2cn(C)cn2)[C@H](C)CN([C@H](C)CO)C(=O)c2cc(NS(=O)(=O)c3ccccc3)ccc2O1,inactive,inactive,inactive
C[C@@H]1CN([C@H](C)CO)C(=O)Cc2cc(NC(=O)Nc3ccc(F)cc3)ccc2O[C@H]1CN(C)C(=O)Nc1cccc2ccccc12,inactive,inactive,inactive
COc1ccc(COC[C@@]23Oc4ccccc4[C@@H](NC(=O)N2C)[C@H]3COC(=O)NCCCCCC(=O)NO)cc1,inactive,inactive,inactive
CC(=O)Nc1ccc(S(=O)(=O)CCO)cc1,inactive,inactive,inactive
C[C@H](CO)N1C[C@H](C)[C@H](CN(C)Cc2ccc(C(=O)Nc3ccccc3N)cc2)Oc2ccc(NS(C)(=O)=O)cc2C1=O,inactive,inactive,inactive

SMILES,cytotoxicity call (HSkMC),cytotoxicity call (HepG2),growth inhibition call (S. aureus RN4220)
C[C@@H]1CN([C@H](C)CO)C(=O)c2cccc(NS(=O)(=O)c3ccc(F)cc3)c2O[C@H]1CN(C)C(=O)Nc1ccc(C(F)(F)F)cc1,inactive,inactive,inactive
C[C@@H]1CCCCO[C@@H](CN(C)C)[C@@H](C)CN([C@@H](C)CO)C(=O)c2cc(NS(=O)(=O)c3cn(C)cn3)ccc2O1,inactive,inactive,inactive
COc1ccc(S(=O)(=O)N[C@H]2C=C[C@@H](CC(=O)N3CCN(c4ccccc4)CC3)O[C@H]2CO)cc1,inactive,inactive,inactive
CCO[C@@H]1OC(C(=O)N2CCN(Cc3ccccc3)CC2)=C[C@H](C)[C@H]1CCCOC(=O)NCCCCCC(=O)NO,inactive,inactive,inactive
C[C@@H]1CN([C@H](C)CO)S(=O)(=O)c2ccc(C#Cc3ccc(F)cc3)cc2O[C@@H]1CN(C)C(=O)CN(C)C,inactive,inactive,inactive
C[C@@H]1CN([C@H](C)CO)C(=O)Cc2cc(NC(=O)CCCN(C)C)ccc2O[C@H]1CN(C)S(=O)(=O)c1ccccc1,inactive,inactive,inactive
N=C(N)NCCN1CCCCCCC1.O=S(=O)(O)O,inactive,inactive,inactive
CC[C@@H](O)C[C@H]1CC[C@H]([C@@H](C)C(=O)O[C@@H](C)C[C@H]2CC[C@H]([C@@H](C)C(=O)O[C@@H](C)C[C@H]3CC[C@H]([C@@H](C)C(=O)O[C@@H](C)C[C@H]4CC[C@H]([C@@H](C)C(=O)O)O4)O3)O2)O1,inactive,active,inactive
Cc1noc(C)c1NC(=O)N(C)C[C@@H]1Oc2ccc(NC(=O)c3ccncc3)cc2CC(=O)N([C@H](C)CO)C[C@H]1C,inactive,inactive,inactive
C[C@@H]1CN([C@@H](C)CO)C(=O)c2cc(NS(=O)(=O)c3cccs3)ccc2O[C@@H](C)CCCCO[C@@H]1CN(C)C(=O)Nc1cccc2ccccc12,inactive,inactive,inactive
C[C@@H]1CN([C@@H](C)CO)C(=O)c2cccc(NC(=O)Nc3ccc(C(F)(F)F)cc3)c2O[C@H]1CN(C)Cc1ccc(C(=O)Nc2ccccc2N)cc1,inactive,active,inactive
COc1ccc(S(=O)(=O)Nc2cccc3c2O[C@@H](CN(C)C(=O)Nc2cccc4ccccc24)[C@H](C)CN([C@H](C)CO)C3=O)cc1,inactive,inactive,inactive
CCNC(=O)C[C@@H]1CC[C@H]2[C@@H](COc3ccc(NS(=O)(=O)c4ccccc4C)cc3C(=O)N2C)O1,inactive,inactive,inactive
Cc1ccc(S(=O)(=O)N(C)C[C@H]2Oc3ccc(NC(=O)CCCN(C)C)cc3CC(=O)N([C@H](C)CO)C[C@H]2C)cc1,inactive,inactive,inactive
COc1ccc(S(=O)(=O)N(C)C[C@H]2OCCCC[C@H](C)Oc3ccc(NC(=O)NC4CCCCC4)cc3C(=O)N([C@@H](C)CO)C[C@@H]2C)cc1,inactive,inactive,inactive
C[C@@H]1CN([C@H](C)CO)C(=O)Cc2cc(NC(=O)Nc3cccc4ccccc34)ccc2O[C@@H]1CN(C)C(=O)Nc1cccc2ccccc12,inactive,inactive,inactive
O=C(O)Cn1nnnc1-c1ccc(F)cc1,inactive,inactive,inactive
CC(C)NC(=O)N(C)C[C@H]1OCCCC[C@H](C)Oc2ccc(NS(C)(=O)=O)cc2C(=O)N([C@@H](C)CO)C[C@@H]1C,inactive,inactive,inactive
COc1ccc(CN(C)C[C@H]2OCCCC[C@H](C)Oc3ccc(NC(=O)C4CCCCC4)cc3C(=O)N([C@@H](C)CO)C[C@H]2C)cc1,inactive,inactive,inactive
C[C@H](CO)N1C[C@H](C)[C@@H](CN(C)C(=O)Nc2ccc3c(c2)OCO3)OCCCC[C@H](C)Oc2ccc(NS(=O)(=O)c3ccccc3)cc2C1=O,inactive,inactive,inactive
Cc1noc(C)c1NC(=O)N(C)C[C@H]1Oc2ccc(NS(=O)(=O)c3c(C)noc3C)cc2C(=O)N([C@@H](C)CO)C[C@H]1C,inactive,inactive,inactive
C[C@H](CO)N1C[C@H](C)[C@H](CN(C)Cc2ccccc2)OCCCC[C@H](C)Oc2ccc(NS(=O)(=O)c3ccc(F)cc3)cc2C1=O,inactive,inactive,inactive
CO[C@H]1CN(C)C(=O)c2ccc(NC(C)=O)cc2OC[C@H](C)N(S(=O)(=O)c2cn(C)cn2)C[C@@H]1C,inactive,inactive,inactive
C[C@H]1CN([C@@H](C)CO)C(=O)Cc2cc(NS(C)(=O)=O)ccc2O[C@@H]1CN(C)Cc1ccc(C(=O)O)cc1,inactive,inactive,inactive
Cc1noc(C)c1NC(=O)Nc1ccc2c(c1)C(=O)N([C@@H](C)CO)C[C@H](C)[C@H](CN(C)Cc1ccccc1)OCCCC[C@H](C)O2,inactive,inactive,inactive
C[C@@H]1CCCCO[C@@H](CN(C)Cc2ccc(Cl)c(Cl)c2)[C@H](C)CN([C@H](C)CO)C(=O)c2cc(NC(=O)Nc3ccccc3)ccc2O1,inactive,active,inactive
